# According to PubChem BioAssay AID485294 (National Center for Advancing Translational Sciences (NCATS), 2010):
# Screen size: about 370,000 compounds; about 150 (0.041%) were called active. The shares of active, inactive and inconclusive entries below differ from those in the screen. The call rests on the fitted dose curve; in most records, active means well fitted inhibition curve with a large enough effect; inconclusive means small, poorly fitted or top-dose-only effect; inactive means flat fitted curve, though single readings scatter. No potency is given beside an inconclusive call; the fits are too rough.
# Target: Beta-lactamase (Escherichia coli (strain K12)) (UniProt P00811)
# UniProt P00811, sequence (P00811 whole entry, looked up): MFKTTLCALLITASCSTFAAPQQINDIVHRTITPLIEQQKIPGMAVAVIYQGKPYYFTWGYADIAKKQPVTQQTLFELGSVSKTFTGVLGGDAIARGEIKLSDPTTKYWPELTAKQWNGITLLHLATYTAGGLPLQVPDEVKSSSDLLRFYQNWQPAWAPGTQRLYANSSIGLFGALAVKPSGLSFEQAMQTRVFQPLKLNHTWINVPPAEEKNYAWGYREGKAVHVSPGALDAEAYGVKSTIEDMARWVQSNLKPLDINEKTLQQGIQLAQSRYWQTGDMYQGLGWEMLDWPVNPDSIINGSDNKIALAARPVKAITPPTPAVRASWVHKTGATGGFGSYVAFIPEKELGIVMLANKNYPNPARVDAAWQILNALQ
# Experiment: qHTS Inhibitors of AmpC Beta-Lactamase (assay with detergent); further: nearly all actives have a fitted effect of over 25% in size;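 on activity change, negative = inhibition: 0% = no-compound wells and -100% = no-enzyme wells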
# Details: AmpC hydrolysis of nitrocefin, absorbance 480 nm, 0.01% Triton; activity change, negative = inhibition: at 114 µM (top of the series)
# In short: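 20 mM phosphate pH 7.0 + 0.01% (detergent screen) or 0.0001% Triton X-100; 5.3 nM AmpC reagent; cpd preinc 15 min RT; nitrocefin (800 uM stock) to start; A480 q20 s × 4 min; Activity was normalised to no-enzyme and no-compound control wells.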
# Potency means the concentration at half of the fitted maximal effect; tags describe the fitted curve by direction and shape.
Compound,Potency,"activity change, negative = inhibition"
Cn1c(=O)c(=O)n(C)c2cc(S(=O)(=O)N3CCN(c4ccc(F)cc4)CC3)ccc21,"inconclusive [inhibitor, full curve, poor fit]",–
COc1ccccc1N1CCN(CC(=O)Nc2sccc2C#N)CC1,"inconclusive [inhibitor, full curve]",–
C=CCOC(=O)C(=O)/C=C/c1ccc2c(c1)Cc1ccccc1-2,–,inactive: 1.2%
O=C(CCc1nnc(CCCc2ccccc2)o1)N1CCCCCC1,–,inactive: -4.36%
CN1CCN(CCCNC(=O)c2cc3c(=O)n(C)c4ccccc4c3s2)CC1,"inconclusive [inhibitor, full curve, poor fit]",–
CCN(CC)C(=O)CC(c1ccc(F)cc1)c1ccco1 (stereo not drawn),–,inactive: -0.238%
CCn1c2ccccc2c2cc(NC(=O)Cc3ccc(S(=O)(=O)N4CCOCC4)s3)ccc21,"inconclusive [inhibitor, full curve, poor fit]",–
CCCn1c(N)c(N(CCOC)C(=O)CSCC(=O)Nc2ccc(OC)cc2)c(=O)[nH]c1=O,–,inactive: -1.19%
O=C(CCc1ccccc1)Nc1cc2c(cc1Cl)OCCO2,"inconclusive [inhibitor, full curve, poor fit]",–
CC(=NCCCn1ccnc1)c1c(O)n(C)c(=O)n(C)c1=O,–,inactive: -1.23%
COc1cccc2c(=O)n(CC(=O)N3CCc4ccccc43)ccc12,"inconclusive [inhibitor, partial curve]",–
COc1ccccc1NC(=O)C1=C(C)Nc2nc(CCCO)nn2C1c1cccc(O)c1 (stereo not drawn),–,inactive: 5.58%
O=S(=O)(NCC(c1ccc2c(c1)OCO2)N1CCOCC1)c1ccccc1 (stereo not drawn),"inconclusive [inhibitor, full curve, poor fit]",–
COc1ccc2c(Sc3ccc(C)cc3)c(C(=O)NCc3ccc(F)cc3)[nH]c2c1,–,inactive: 24.2%
c1ccc(CSc2nnc(-c3sccc3-n3cccc3)o2)cc1,"inconclusive [inhibitor, partial curve, poor fit]",–
COc1cc(C)c(S(=O)(=O)N2CCN(C)CC2)cc1C,"inconclusive [inhibitor, full curve]",–
O=c1c2ccccc2c(-c2ccccc2)nn1-c1ccc(Cl)c(Cl)c1,–,inactive: -6.47%
CC(OC(=O)c1ccc2c(c1)C(=O)N(Cc1ccncc1)C2=O)C(=O)Nc1cccc(Cl)c1Cl (stereo not drawn),"inconclusive [inhibitor, partial curve, poor fit]",–
CCOc1ccc(-c2c(C(=O)N/N=C/c3ccc(Cl)cc3)nnn2-c2nonc2N)cc1,–,inactive: 1.3%
COc1cc(C)c(CN2CCC(n3nccc3NC(=O)C3CC3)CC2)cc1C,"inconclusive [inhibitor, full curve, poor fit]",–
Cc1nnc(SC(C)C(=O)NC2CCCCC2)s1 (stereo not drawn),"inconclusive [inhibitor, partial curve, poor fit]",–
COCCN1C(=O)NC(=O)/C(=C\c2ccc(Br)cc2)C1=O,"inconclusive [inhibitor, full curve, poor fit]",–

Compound,Potency,"activity change, negative = inhibition"
CN(C/C=C/c1ccccc1[N+](=O)[O-])Cc1ccccc1,"inconclusive [inhibitor, partial curve, poor fit]",–
CCOC(=O)N1CCc2c(sc(NCc3cccc(F)c3)c2C(=O)Nc2ccc(OC)cc2OC)C1,–,inactive: -2.44%
O=C(CSc1ncnc2scc(-c3ccc(Cl)cc3)c12)NCc1ccc2c(c1)OCO2,"inconclusive [inhibitor, full curve]",–
C=CCn1c(CCNC(=O)c2cccs2)nnc1SCC(=O)Nc1cccc(Cl)c1C,"inconclusive [inhibitor, single point]",–
CS(=O)(=O)Nc1ccc(C(=O)NCc2ccc3c(c2)OCO3)cc1,–,inactive: -0.495%
Cc1ccccc1NC(=O)c1ccc2nccnc2c1,–,inactive: -6.79%
Cn1c(=O)oc2cc(S(=O)(=O)NC3CCCc4ccccc43)ccc21 (stereo not drawn),"inconclusive [inhibitor, full curve]",–
COc1ccc(CNC(=S)NC2CCCCC2)cc1,"inconclusive [inhibitor, partial curve]",–
O=C(CCN1C(=O)C2C3CCC(C3)C2C1=O)OCC(=O)c1ccc(Cl)cc1 (stereo not drawn),–,inactive: -12.7%
Cc1ccc(CN(C)CC(=O)Nc2ccccc2C(=O)NC2CC2)o1,–,inactive: 1.52%
COc1ccccc1S(=O)(=O)Cc1ccc(C(=O)NC2CCCCCC2)o1,"inconclusive [inhibitor, full curve, poor fit]",–
O=C(Nc1nnc(C(F)(F)F)s1)c1ccc(Br)s1,–,inactive: -9.91%
CCOC(=O)C1CCN(C(=O)C(=O)c2cn(CC(=O)N3CCCCCC3)c3ccccc23)CC1,"inconclusive [inhibitor, partial curve]",–
CCc1cccc2c(C(=O)CSc3nncn3-c3ccc(OC)cc3)c[nH]c12,–,inactive: -12.8%
CC(=O)OCC1O[C@@H](O[C@@H]2C[C@H]3C(C)(C)[C@H](OC(C)=O)CC[C@]3(C)[C@H]3CC[C@]45C[C@]4(CC[C@H]5[C@@H](C)C[C@@H](O)[C@H](O)C(C)(C)O)[C@@]32C)[C@H](O)[C@@H](O)[C@@H]1O (stereo partly drawn),"inconclusive [inhibitor, partial curve, poor fit]",–
O=C(CCNS(=O)(=O)c1ccc2[nH]c(=O)oc2c1)Nc1cccc(Br)c1,"inconclusive [inhibitor, full curve, poor fit]",–
CCOc1ccc(NC(=O)c2ccc(CN3CCc4ccccc4C3)cc2)cc1,"inconclusive [inhibitor, full curve, poor fit]",–
COc1ccc2c(c1)c(C(O)CN1CCN(Cc3ccc4c(c3)OCO4)CC1)c(C)n2C (stereo not drawn),–,inactive: -9.06%
CCOC(=O)C1CCCN(C(=O)C2CCN(S(=O)(=O)c3c(C)noc3/C=C/c3ccccc3F)CC2)C1 (stereo not drawn),"inconclusive [inhibitor, full curve, poor fit]",–
COc1ccc(-c2cn(CCO)c(-c3ccncc3)n2)cc1,"inconclusive [inhibitor, partial curve]",–
O=C(CSC1=Nc2ccccc2N=C(c2ccc(F)cc2)C1)Nc1cccc(C(F)(F)F)c1,–,inactive: -2.57%
